Reference: the supplement of paper PMC11417369
± gives the standard deviation of the averaged measurements. Some of the results follow.

Tested on: PfAP2-G AP2 domain (GST-tagged)
Assay: gcPBM binding intensity (ln(normalized median fluorescence intensity)); higher = stronger DNA binding
Method in brief: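 An Agilent 4 × 180k array carrying primer-extended double-stranded 36-bp intergenic genomic probes and negative controls received GST-tagged P. falciparum DNA-binding domains expressed in E. coli, about 25 μg on average, for 1 h. The binding buffer contained 1× PBS, 1% milk, 0.2 mg/ml BSA, 0.5% salmon testes DNA and 0.03% Triton X-100. Binding intensity is the top Masliner-normalised natural-log median intensity across replicate spots of either probe orientation, read after Alexa488 anti-GST antibody staining and a 488 nm scan.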

Going from “ATTATATTAATATATATATATATATATATAATAATA [CACACA_negctrl_site437]” to “TAATATTATATTATATGTACATAACAAATTATATTT [XGTACX_site4296]”, the “gcPBM binding intensity (ln)” value rises from 9.62 ± 0.23 to 11.3 ± 0.86.

“ATGAAAAAATTTAAATGTACATTACATATATTTATT [XGTACX_site2524]” and “AAAAATTACAAAAATGCATGTACTATTCATATTTTT [TGCATGCA_site918]” are the same in “gcPBM binding intensity (ln)” value: 10.8 ± 0.5 for the first, 10.8 ± 0.47 for the second.

“AAAAAAAATTCCAGTACACACAATAATACTAAAAAT [CACACA_site2801]” and “ATGAGTAACATATTTGTGCACATATGGTTATTTTTA [GTGCAC_site9541]” are within error of each other in “gcPBM binding intensity (ln)” value: 11.1 ± 0.86 for the first, 10.3 ± 0.12 for the second.

“ATAAAAAACAGTGGCACACATTATGTATCCACCTTT [CACACA_site5958]” and “CATTTATTATGATAAAGTACTTAAATTAATAGATAA [XGTACX_site3566]” are within error of each other in “gcPBM binding intensity (ln)” value: 10.5 ± 0.18 for the first, 11.3 ± 0.78 for the second.

“ATGCATATAATTATATGTACATATAAGAAATATATA [XGTACX_site517]” and “CATAATATGTGGACTTTACACACTTGTTTTAAAATT [CACACA_site819]” are within error of each other in “gcPBM binding intensity (ln)” value: 11.1 ± 0.59 for the first, 10.9 ± 0.54 for the second.

First: TCTTTTTTTTTTTTTTTTTCTTCTTCTCAATATAAA [GTGCAC_negctrl_site303]
Second: TATGCACACAATATATGTACTTATATATTTTAAAAA [XGTACX_site5482]
The “gcPBM binding intensity (ln)” value of the first is lower: 9.79 ± 0.29 for the first, 11.2 ± 0.79 for the second.

“TTTTATAAAAAAACTATAAAAATATATAGTACTTAA [CACACA_negctrl_site440]” and “TAGTGTATGATAATATGTACATACATTTATATAATA [XGTACX_site6330]” are within error of each other in “gcPBM binding intensity (ln)” value: 10.9 ± 0.75 for the first, 11.2 ± 0.67 for the second.

Compared with “AGGACACATATATGCAAAAAAAAAAAAAAAAAAAAA [TGCATGCA_negctrl_site427]”, “TTCCGAACGACCTAAAGTACATGTATTTCAACTTTT [XGTACX_site1220]” is higher in “gcPBM binding intensity (ln)” value: 9.75 ± 0.51 for the first, 11.1 ± 0.57 for the second.

Compared with “CATATAAAGATATGAACACACAAAAAGAATATTTCC [CACACA_site6811]”, “AATAATAAAAAATACACACACATATAAATATATTAC [CACACA_site7597]” is lower in “gcPBM binding intensity (ln)” value: 10.26 ± 0.042 for the first, 9.875 ± 0.092 for the second.

Going from “TTATATTCTAGAGACACATGCGATTTTTTATTTTAT [TGCATGCA_site649]” to “TGGAATAATCCGCGTACACACATATATATATTAAGA [CACACA_site4253]”, the “gcPBM binding intensity (ln)” value rises from 9.94 ± 0.17 to 11.6 ± 0.87.

“GTTACTATGATTAATGCATGCAAATACCAAAAAAAA [TGCATGCA_site590]” and “TATACCACACGATATACACACTTGTAGACATCTTTT [CACACA_site6232]” are within error of each other in “gcPBM binding intensity (ln)” value: 10.2 ± 0.2 for the first, 10.07 ± 0.028 for the second.

First: AATAAAAATAGGAATACGCACACGATGATTAATTTA [CACACA_site1836]
Second: AATTAACCCTAATTTTGTACATATTCCTTTTCTCAT [XGTACX_site46]
The “gcPBM binding intensity (ln)” value of the first is lower: 10.1 for the first, 10.8 ± 0.14 for the second.

“AATTAAAATTTTTGAAGTACACTCAAAATAAGTTAT [XGTACX_site4490]” and “TCCCTTCATCTTTTATGTACTAAAAAATTGAATAAT [XGTACX_site2172]” are within error of each other in “gcPBM binding intensity (ln)” value: 11.5 ± 0.95 for the first, 11.1 ± 0.78 for the second.

First: TAATACGAATGAGGCACACACCTAGTATACATGCTT [CACACA_site6438]
Second: AAAAAAAAATTTAAGGGTACATACAAATATATATAT [XGTACX_site5078]
The “gcPBM binding intensity (ln)” value of the first is lower: 10.005 ± 0.007 for the first, 11.2 ± 1.1 for the second.

First: AAAATAAAAAAAAACACACACATACAAGCATATATA [CACACA_site1585]
Second: AATTAATGGCTAAAGGTGCACAATATATATATTACA
The “gcPBM binding intensity (ln)” value of the first is lower: 9.91 ± 0.12 for the first, 10.6 ± 0.55 for the second.

“TTTTTTTTTTTGAAATGTACATTCCAAAAACTGATA [XGTACX_site1495]” and “TATATATATATATATTTTTTTTTTTTATGCACATGG [CACACA_negctrl_site1573]” are within error of each other in “gcPBM binding intensity (ln)” value: 10.7 ± 0.51 for the first, 9.93 ± 0.41 for the second.

“TAATACCTATGGTATAGTACGTATTATTTTATAGAG [XGTACX_site2078]” and “CTTTTGAACAGTTCATGTACTCAATTTTTTAATAGT [XGTACX_site6498]” are within error of each other in “gcPBM binding intensity (ln)” value: 11.2 ± 0.68 for the first, 11.4 ± 0.94 for the second.

“ATGATTTCATTTGAGAGTACGTAAAAATAATACGTA [XGTACX_site4958]” and “TATTTTTATTGGTACTGTACCTATTTAGAAATACAT [XGTACX_site6663]” are within error of each other in “gcPBM binding intensity (ln)” value: 11.3 ± 0.91 for the first, 11.5 ± 0.81 for the second.

Going from “TATTTATAAAAAAATACATGCATTTTTTTTTTTTTT [TGCATGCA_site65]” to “TGTTAATTCTTAAGAATTTCCATAATTTCTTCTTTT [CACACA_negctrl_site1065]”, the “gcPBM binding intensity (ln)” value falls from 9.825 ± 0.064 to 9.66 ± 0.042.

Going from “TTTGCCATATGACACACACACATGTAAACCCCCTTT [CACACA_site6873]” to “TAATACAAAAACAATGTTCTTTCAAACATAAACATA [CACACA_negctrl_site1628]”, the “gcPBM binding intensity (ln)” value falls from 10.7 ± 0.55 to 9.77 ± 0.17.

“ACATTCTATATATACACACATACATAATAAAGAAAG [CACACA_site2771]” and “AAATAATAAAACAACACACAAATAGTTAAAATAGAA [CACACA_site5007]” are within error of each other in “gcPBM binding intensity (ln)” value: 10.1 ± 0.13 for the first, 9.91 ± 0.15 for the second.

First: ATATAATGATGGAAAAGAAAAGAAATAAAAAAAAAA [CACACA_negctrl_site1170]
Second: TTTTAATGATATATGAGTACACATTGTTTTTTATAA [XGTACX_site1072]
The “gcPBM binding intensity (ln)” value of the first is lower: 9.61 ± 0.17 for the first, 11.6 ± 1 for the second.

Compared with “AATAAAAAAAAACTCATGCACACAATATTATGAAAA [CACACA_site664]”, “AGAGAAAGAAGGGAGAAAAAATAAAATAAAATAAAA [GTGCAC_negctrl_site299]” is lower in “gcPBM binding intensity (ln)” value: 9.975 ± 0.007 for the first, 9.63 ± 0.2 for the second.

Going from “AAAAATTACAAATACAAACACACAAATGTTTTTCAT [CACACA_site3551]” to “AATAAAATAAATATATGTACATATATATAACCATTA [XGTACX_site5549]”, the “gcPBM binding intensity (ln)” value rises from 9.71 ± 0.13 to 11.1 ± 0.54.

First: CATATATAGATATATACACACATACATACATACATA [CACACA_site7748]
Second: TGCATATGCATTATTTGTACATATGTAGATAATTAT [XGTACX_site6930]
The “gcPBM binding intensity (ln)” value of the first is lower: 10 ± 0.13 for the first, 10.8 ± 0.47 for the second.

Compared with “AATACATGAATATGTAGTACAGAAAAAAAAAATATA [XGTACX_site1945]”, “AAAATGACATAATGGGGAATAGACATATACATAAAT [CACACA_negctrl_site1669]” is lower in “gcPBM binding intensity (ln)” value: 11.7 ± 0.95 for the first, 9.91 ± 0.099 for the second.

Going from “GTTACAGAGAATGTTGTGCACATATCAATAATATAT [GTGCAC_site9671]” to “CCACATTAAAAAAAAACACACATATATTATATATAT [CACACA_site1155]”, the “gcPBM binding intensity (ln)” value falls from 10.5 ± 0.28 to 9.76 ± 0.11.

“AATTAATTAAATTAATGTACACATATATTTGTATTC [XGTACX_site2341]” and “TATATATATATATATATTTTAAATGATATAAATGGT [TGCATGCA_negctrl_site152]” are within error of each other in “gcPBM binding intensity (ln)” value: 11.3 ± 0.79 for the first, 10.2 ± 0.53 for the second.
